In all, about 81,000 sequences were measured (“one-hybrid fitness for binding parS DNA”: median about -0.17, highest 2% from about 0.51 on). The list shows a part of the results.
B1: Caulobacter ParB omega fusion; a variant is named by its letters at X, in order, B8GW30 (parent)
chain: MESVVVGEPGMSEGRRGLGRGLSALLGEVDAAPAQAPGEQLGGSREAPIEILQRNPDQPRRTFREEDLEDLSNSIREKGVLQPILVRPSPDTAGEYQIVAGERAWRAAQRAGLKTVPIMVRELDDLAVLEIGIIENVQRADLNVLEEALSYKVLMEKFERTQENIAQTIGKSXSHVANXMRLLXLPDEVQSYLVSGELTAXHARAIAAAADPVALAKQIIEGGLSVRETEALARKAPNLSAGKSKGGRPPRVKDTDTQALESDLSSVLGLDVSIDHRGSTGTLTITYATLEQLDDLCNRLTRGI

Variants of: B1
Assay: one-hybrid fitness for binding parS DNA (scaled: cognate 1, non-cognate 0); higher = stronger binding
Settings: with parS DNA site
Method in brief: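 Pre- and post-selection plasmids were Illumina-sequenced, three replicate libraries were pooled, and any variant with under 10 reads was removed. The libraries were Caulobacter ParB with four specificity codons randomised, selected in E. coli USO through a HIS3 reporter whose site is 19 bp from the promoter. Cells grew 48 hours at 37°C on M9 without histidine, with 0.1 mM IPTG and 5 mM 3-AT. Fitness is the log change in variant-to-wild-type read ratio, rescaled against cognate and non-cognate.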

one-hybrid fitness for binding parS DNA, 0.78:
RRVA

one-hybrid fitness for binding parS DNA, 0.896:
RGKG

one-hybrid fitness for binding parS DNA, 0.753:
RRIS

one-hybrid fitness for binding parS DNA, ≤ 0.2:
QQLE
DSLI
NGTM
YMGS
HHSR
HAND
KAWF
AANM
NLRQ
QDVN
SCTC
QDTC
TELS
GAGC
ENSS
WQGT
TRDY
QHYP
DIGI
QMKR
RPIY
DSQC
NKPS
QMGY
PIAT
GCNP
YAQR
WYCS
ELTG
TQWK
ADHV
PREL
RYYL
CYWC
CATS
TMPF
RKKK
PQNE
HRLN
KNLG
QGKQ
PYNY
FKTL
QGKV
PAWT
MDTT
EYWG
YARS
NKKM
NIPG
KTFC
WYQT
LTDL
QHKM
THSV
VCCW
MYNT
TECA
MWQG
QVQA
PPIC
PEQL
SKSP
HWRC
AYEW
VWKC
STPC
SLTA
MYHG
GLMS
QHNT
SGPS
MCTG
WFLL
HLLT
RCEI
QFVG
QIKF
SYMT
RMKI
WNMS
IHCS
FCAT
HKHF
RPLV
WVGG
QTQV
QTVD
HYYD
GKHS
MLQN
EAKG
MWDF
VVDA
GREL
WEPR
LSLK
YRDA
HPTV
QWWS
KYRL
HNQS
YIFC
NRSM
VHAS
SFGI
TTSE
KQDV
SMMS
MNVA
AVSF
VLGC
IHAG
RPCC
SCKN
HKPC
IAPS
FPAG
GCAC
ANSK
ACDV
SGMN
YSGS
LLAF
LGMR
MRFL
PGNG
MAKG
NDGR
IVNM
KMDG
PTFL
QAYC
EAPF
MWLT
ETER
TTYT
TKNL
SVRF
FMLL
LGLA
QQKV
AILN
FHAP
WKPV
NNAG
TTTM
CNDT
DCAC
SAVC
AMDN
PWLE
WYYR
ITTY
MHAR
RWND
CHLH
VLGP
VKQT
TCWT
QDPP
NEAT
TINF
LHYF
PYSY
KPMC
CCTC
QPQN
YPSV
SVPG
EYES
NMTD
LLSV
TTWH
DKTE
MMYG
RGQI
CSKF
CNDW
KLQR
MQMR
EIAS

one-hybrid fitness for binding parS DNA, 0.94:
RLNC

one-hybrid fitness for binding parS DNA, 0.335:
QQFG

one-hybrid fitness for binding parS DNA, 0.964:
RKLG

one-hybrid fitness for binding parS DNA, 0.221:
PMWS

one-hybrid fitness for binding parS DNA, 0.236:
ILMP

one-hybrid fitness for binding parS DNA, 0.244:
RKIM

one-hybrid fitness for binding parS DNA, 0.734:
RHET

one-hybrid fitness for binding parS DNA, 0.389:
RHMN

one-hybrid fitness for binding parS DNA, 0.995:
RIFS

one-hybrid fitness for binding parS DNA, 0.282:
QCCT
